# According to paper PMC12820563, “FoxP3 forms a head-to-head dimer in vivo and stabilizes its multimerization on adjacent microsatellites”:
# The other results are listed elsewhere or left out.
# Target: T1, MBP-FoxP1dN (Mus musculus, UniProt P58462 326-579)
# T1 sequence: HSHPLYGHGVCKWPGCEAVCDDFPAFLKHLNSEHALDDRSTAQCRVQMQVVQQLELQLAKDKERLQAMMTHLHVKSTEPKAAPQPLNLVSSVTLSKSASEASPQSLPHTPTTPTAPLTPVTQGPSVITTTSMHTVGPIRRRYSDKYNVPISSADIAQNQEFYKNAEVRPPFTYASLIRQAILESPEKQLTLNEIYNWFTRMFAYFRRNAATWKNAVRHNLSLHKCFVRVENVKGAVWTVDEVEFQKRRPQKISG
# Test: PD-seq (MBP pull-down with sequencing); 20 mM Tris-HCl pH 7.5, 100 mM NaCl, 1.5 mM MgCl2, 0.4 uM protein, 0.1 uM dsDNA library, 30 min, room temperature, amylose pull-down; high values mean tight binding
# Conditions: protein: recombinant; tags: His6-MBP; chain copies: 2; dsDNA, one strand shown
# Procedure, shortened: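 Binding is given as reads-per-million enrichment, pull-down over input, with replicates pooled. The bait was an N-terminus-lacking mouse FoxP3 or FoxP1 fragment with a His6-MBP tag, expressed in E. coli and used at 0.4 µM with 0.1 µM Klenow-filled degenerate double-stranded DNA library for 30 min at room temperature in Tris pH 7.5 buffer with NaCl and MgCl2. Amylose resin pull-down with three washes was followed by proteinase K release, PCR barcoding and Illumina sequencing.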
row,Sequence,binding signal
1,GATGATTGTTCTCCCAGCTGATGAATTTACTCTTTCGAGTAAACAAATTTTCCTAATCTTTCTGTTCAAGCGCCATCTAC,1.37 RPM ratio (pull-down/input)
2,GATGATTGTTCTCCCAGCTGATGAATTCCTATTATCGAGTAAACAAATTTTCCTAATCTTTCTGTTCAAGCGCCATCTAC,1.33 RPM ratio (pull-down/input)
3,GATGATTGTTCTCCCAGCTGATGAATTGTCTTACTCGAGTAAACAAATTTTCCTAATCTTTCTGTTCAAGCGCCATCTAC,1.09 RPM ratio (pull-down/input)
4,GATGATTGTTCTCCCAGCTGATGAATTAGACTTCTCGAGTAAACAAATTTTCCTAATCTTTCTGTTCAAGCGCCATCTAC,0.789 RPM ratio (pull-down/input)
5,GATGATTGTTCTCCCAGCTGATGAATTCAGTACGTCGAGTAAACAAATTTTCCTAATCTTTCTGTTCAAGCGCCATCTAC,0.946 RPM ratio (pull-down/input)
6,GATGATTGTTCTCCCAGCTGATGAATTGCCGCAATCGAGTAAACAAATTTTCCTAATCTTTCTGTTCAAGCGCCATCTAC,1.16 RPM ratio (pull-down/input)
7,GATGATTGTTCTCCCAGCTGATGAATTTGTGTTCTCGAGTAAACAAATTTTCCTAATCTTTCTGTTCAAGCGCCATCTAC,1.48 RPM ratio (pull-down/input)
8,GATGATTGTTCTCCCAGCTGATGAATTTATATATTCGAGTAAACAAATTTTCCTAATCTTTCTGTTCAAGCGCCATCTAC,1.26 RPM ratio (pull-down/input)
9,GATGATTGTTCTCCCAGCTGATGAATTGACTGGCTCGAGTAAACAAATTTTCCTAATCTTTCTGTTCAAGCGCCATCTAC,0.895 RPM ratio (pull-down/input)
10,GATGATTGTTCTCCCAGCTGATGAATTTAGAAGATCGAGTAAACAAATTTTCCTAATCTTTCTGTTCAAGCGCCATCTAC,0.978 RPM ratio (pull-down/input)
11,GATGATTGTTCTCCCAGCTGATGAATTTTACACATCGAGTAAACAAATTTTCCTAATCTTTCTGTTCAAGCGCCATCTAC,1.11 RPM ratio (pull-down/input)
12,GATGATTGTTCTCCCAGCTGATGAATTCATCACATCGAGTAAACAAATTTTCCTAATCTTTCTGTTCAAGCGCCATCTAC,1.16 RPM ratio (pull-down/input)
13,GATGATTGTTCTCCCAGCTGATGAATTTCGAGTGTCGAGTAAACAAATTTTCCTAATCTTTCTGTTCAAGCGCCATCTAC,0.87 RPM ratio (pull-down/input)
14,GATGATTGTTCTCCCAGCTGATGAATTGGGATCCTCGAGTAAACAAATTTTCCTAATCTTTCTGTTCAAGCGCCATCTAC,0.816 RPM ratio (pull-down/input)
15,GATGATTGTTCTCCCAGCTGATGAATTCAGAGGCTCGAGTAAACAAATTTTCCTAATCTTTCTGTTCAAGCGCCATCTAC,0.812 RPM ratio (pull-down/input)
16,GATGATTGTTCTCCCAGCTGATGAATTGCGTGTATCGAGTAAACAAATTTTCCTAATCTTTCTGTTCAAGCGCCATCTAC,1.35 RPM ratio (pull-down/input)

row,Sequence,binding signal
1,GATGATTGTTCTCCCAGCTGATGAATTGACGATATCGAGTAAACAAATTTTCCTAATCTTTCTGTTCAAGCGCCATCTAC,1.17 RPM ratio (pull-down/input)
2,GATGATTGTTCTCCCAGCTGATGAATTGTAGGTGTCGAGTAAACAAATTTTCCTAATCTTTCTGTTCAAGCGCCATCTAC,0.949 RPM ratio (pull-down/input)
3,GATGATTGTTCTCCCAGCTGATGAATTCTTTTTTTCGAGTAAACAAATTTTCCTAATCTTTCTGTTCAAGCGCCATCTAC,1.07 RPM ratio (pull-down/input)
4,GATGATTGTTCTCCCAGCTGATGAATTAGAGCCATCGAGTAAACAAATTTTCCTAATCTTTCTGTTCAAGCGCCATCTAC,0.924 RPM ratio (pull-down/input)
5,GATGATTGTTCTCCCAGCTGATGAATTGCGAGTGTCGAGTAAACAAATTTTCCTAATCTTTCTGTTCAAGCGCCATCTAC,1.04 RPM ratio (pull-down/input)
6,GATGATTGTTCTCCCAGCTGATGAATTCTTGGTTTCGAGTAAACAAATTTTCCTAATCTTTCTGTTCAAGCGCCATCTAC,0.962 RPM ratio (pull-down/input)
7,GATGATTGTTCTCCCAGCTGATGAATTTCATGCATCGAGTAAACAAATTTTCCTAATCTTTCTGTTCAAGCGCCATCTAC,1.08 RPM ratio (pull-down/input)
8,GATGATTGTTCTCCCAGCTGATGAATTAAAAGTTTCGAGTAAACAAATTTTCCTAATCTTTCTGTTCAAGCGCCATCTAC,1.04 RPM ratio (pull-down/input)
9,GATGATTGTTCTCCCAGCTGATGAATTCCACAATTCGAGTAAACAAATTTTCCTAATCTTTCTGTTCAAGCGCCATCTAC,1.01 RPM ratio (pull-down/input)
10,GATGATTGTTCTCCCAGCTGATGAATTAAACGTTTCGAGTAAACAAATTTTCCTAATCTTTCTGTTCAAGCGCCATCTAC,0.922 RPM ratio (pull-down/input)
11,GATGATTGTTCTCCCAGCTGATGAATTTTTGAAATCGAGTAAACAAATTTTCCTAATCTTTCTGTTCAAGCGCCATCTAC,1 RPM ratio (pull-down/input)
12,GATGATTGTTCTCCCAGCTGATGAATTGCGAGGCTCGAGTAAACAAATTTTCCTAATCTTTCTGTTCAAGCGCCATCTAC,0.959 RPM ratio (pull-down/input)
13,GATGATTGTTCTCCCAGCTGATGAATTATGGGTATCGAGTAAACAAATTTTCCTAATCTTTCTGTTCAAGCGCCATCTAC,1.03 RPM ratio (pull-down/input)
14,GATGATTGTTCTCCCAGCTGATGAATTGCTTAAGTCGAGTAAACAAATTTTCCTAATCTTTCTGTTCAAGCGCCATCTAC,0.985 RPM ratio (pull-down/input)
15,GATGATTGTTCTCCCAGCTGATGAATTCGGCGGATCGAGTAAACAAATTTTCCTAATCTTTCTGTTCAAGCGCCATCTAC,0.783 RPM ratio (pull-down/input)
